About 200 (0.44%) of roughly 45,000 compounds were called active. Another 7% or so got no clear call; they are omitted. Calls come from the whole dose curve; as a rule, active = well fitted activation curve with a large enough effect; inconclusive = small, poorly fitted or top-dose-only effect; inactive = no such curve, though single readings can be large or run the other way. The list shows a part of the results.
Assay: qHTS of TDP-43 Inhibitors: NCGC Sytravon Library Screen; note: nearly all actives have a fitted effect of over 55% in size; for growth rescue (activation): 0% is about no effect
Settings: yeast TDP-43 toxicity rescue, BacTiter-Glo growth, 24 h; series mostly up to 46.1 µM; growth rescue (activation): at the top concentration
In short: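 TDP-43-expressing yeast, pregrown in raffinose, seeded at OD600 0.02 in galactose medium with compound for 24 hr at 30 deg C. Growth read by BacTiter-Glo luminescence, so rescue of toxicity appears as activation.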
Potency is the fitted concentration of half-maximal effect.

Structure (SMILES)	growth rescue (activation)	Potency
CC(C)(CN1CCN(c2ccccc2)CC1)NS(=O)(=O)c1ccccc1	inactive: 13.1%	–
CCC(C)C(NS(=O)(=O)c1ccc(C)cc1)C(=O)O (configuration not stated)	inactive: 9.27%	–
CC(=O)c1ccc(Sc2nnnn2-c2ccccc2)c([N+](=O)[O-])c1	–	active: 20 µM
CCCCC(=O)N(C)c1c(CC)nc2c(OCCC3CCCCC3)cccn12	inactive: -6.22%	–
CCc1ccc(NC(=O)C2CCCN2C(=O)NC2CCCCC2)cc1 (configuration not stated)	inactive: -12.2%	–
CC(CCc1ccc(O)cc1)NC1C2CC3CC(C2)CC1C3 (configuration not stated)	inactive: 0.149%	–
COc1ccc(/C=C(/NC(=O)c2ccccc2)C(=O)N2CCC(C)CC2)cc1	inactive: 1.72%	–
N#C/C(=C\c1ccc(-c2ccccc2Cl)o1)C(=O)Nc1nc2ccccc2s1	inactive: 2.95%	–
CC(C)Cn1c(-c2cc(Br)ccc2F)nc2c1c(=O)[nH]c(=O)n2CC(C)C	inactive: 9.71%	–
CCCn1c(N2CCN(C(=O)/C=C/C(=O)O)CC2)nc2ccccc21	inactive: 4.05%	–
Cn1c(-c2sc3cc(C(F)(F)F)cnc3c2-c2ccccn2)n[nH]c1=S	inactive: -0.821%	–
O=C(COc1ccc(/C=N/NC(=O)c2ccccc2O)cc1)Nc1ccccc1	inactive: -0.0156%	–
CC(=O)c1ccc(NC(=O)CC23CC4CC(C2)CC(n2nnc(C)n2)(C4)C3)cc1	inactive: -1.39%	–
O=C(NCCNC(=O)c1ccco1)c1ccc(Cl)c(Cl)c1	inactive: 12.2%	–
COc1ccc2oc(=Nc3ccc(C(=O)O)cc3)c(C(=O)NCc3ccco3)cc2c1	inactive: 0.24%	–
CCCNC(=O)C1(C)CCCN(C(=O)c2ccc(OC(F)F)cc2)C1 (configuration not stated)	inactive: 2.55%	–
CC1CCN(C(=O)CN(c2ccccc2)S(=O)(=O)N(C)C)CC1	inactive: 16.9%	–
CN(C(=S)NC1CCCCC1)C1(c2ccccc2Cl)CCCCC1=O (configuration not stated)	inactive: 5.09%	–
Nc1cc(C(=O)OCC(=O)NCc2ccc(F)cc2)ccc1Cl	inactive: 1.3%	–
Cc1[nH]c2ccccc2c1C(=O)COC(=O)c1c(-c2ccccc2Cl)noc1C	inactive: 24.8%	–
CC(C)(C)C(=O)COC(=O)c1ccc(N)c([N+](=O)[O-])c1	inactive: 15.3%	–
CC(Sc1nc2c(c(=O)[nH]1)CCCC2)C(=O)Nc1ccc(Br)cn1 (configuration not stated)	inactive: 7.85%	–

Structure (SMILES)	growth rescue (activation)	Potency
CC1(C(=O)NS(=O)(=O)c2ccc(Cl)cc2)CCN1C(=O)Cc1ccccc1 (configuration not stated)	inactive: 9.36%	–
Cc1cc(CN(C)C)c(O)c(C2(C)CCCCC2)c1	inactive: 11.9%	–
COc1ccccc1N(C)S(=O)(=O)c1ccc(C(=O)Nc2ccc(C)cc2C)cc1	inactive: 15%	–
CSc1ccccc1NC(=S)Nc1ccc(S(N)(=O)=O)cc1	inactive: 13.6%	–
O=C(N/N=C/c1c(O)ccc2ccccc12)c1ccc[n+](CCO)c1	inactive: -23.1%	–
COc1ccc(-c2n[nH]c(=S)n2-c2ccc3c(c2)OCCO3)cc1OC	inactive: 1.93%	–
CC(=O)c1cccc(NS(=O)(=O)c2c(C)noc2C)c1	inactive: 27.2%	–
CCCCN(C)CCN1C(=O)C2C(C(=O)Nc3ccc(Cl)cc3)C3C=CC2(O3)C1C(=O)NC1CCCCC1 (configuration not stated)	inactive: 14.1%	–
COc1ccc(OCCCC(=O)Nc2cccc([N+](=O)[O-])c2C)cc1	inactive: 22%	–
CN1CCN(C(=O)c2cc(=O)c3cc(Cl)cc(Cl)c3o2)CC1	inactive: 10.6%	–
COc1ccc(OCc2nnc(SCC(=O)N3CCCC3)o2)cc1	inactive: 17.6%	–
O=[N+]([O-])c1ccc2nc(CN3CCCCC3)[nH]c2c1	inactive: 2.39%	–
COc1cc(NC(=S)N2CCN(c3ccccn3)CC2)cc(OC)c1	inactive: 5.48%	–
Cc1ccccc1-n1c(SCC(=O)N/N=C/C=C/c2ccccc2[N+](=O)[O-])nc2ccccc2c1=O	inactive: -5.54%	–
O=C(C1=C(O)C(=O)N(c2nccs2)C1c1ccccc1)c1cc2ccccc2o1 (configuration not stated)	inactive: 1.54%	–
Cc1ccc(NC(=S)N2C3CCCC2CC(NC(=O)C2CC2)C3)cc1C (configuration not stated)	inactive: 0.758%	–
O=[N+]([O-])c1cccc(-c2nnc(SCc3cccnc3)o2)c1	inactive: 22.8%	–
CCCC(=O)N1CCCC1(C)C(=O)Nc1ccc2c(c1)CCN2C(C)=O (configuration not stated)	inactive: 8.34%	–
O=C(N/N=C/c1ccc2cccnc2c1)c1ccco1	inactive: 3.89%	–
CCOc1ncccc1C(=O)OCC(=O)NC1CC1	inactive: 13.7%	–
N#Cc1c(Nc2ccccc2)c(/C=N/NCCO)c[nH]c1=O	inactive: 10.6%	–
Cc1cc(C)n2nc(SCC(=O)N3CCC(C(=O)O)CC3)nc2n1	inactive: 2.03%	–

Structure (SMILES)	growth rescue (activation)	Potency
COc1cc(/C=C(\C#N)C(=O)Nc2cccc(C(=O)O)c2)ccc1OCc1ccc(F)cc1	inactive: 12.7%	–
O=C(Nc1ccc(O)cc1)c1cccc(Oc2ccc([N+](=O)[O-])cc2)c1	inactive: 34.4%	–
Cc1n[nH]c(C)c1CCC(=O)N/N=C/c1cccs1	inactive: 1.34%	–
C=CCN1C(=O)C2C(C(=O)NC3CCCC3)C3C=CC2(O3)C1C(=O)NC1CCCC1 (configuration not stated)	inactive: 10.9%	–
CC(=O)NC(CC(=O)Nc1cccc(S(=O)(=O)N2CCCCC2)c1)c1ccccc1 (configuration not stated)	inactive: 2%	–
O=C(NCC(F)(F)F)c1ccc(S(=O)(=O)Nc2ccccc2N2CCCC2)cc1	inactive: 4.12%	–
CCC(=O)NC(=S)Nc1ccc(N2CCOCC2)cc1	inactive: 9.61%	–
COc1ccc(/C=N/NC(=O)c2cc(=O)[nH]c3ccccc23)cc1OC	inactive: -6.06%	–
CCCn1c(SCC(N)=O)nc2c(c1=O)C1(CCCC1)Cc1ccccc1-2	inactive: 28.8%	–
CC1CCN(Cc2c(C(=O)N/N=C/c3ccc(C(F)(F)F)cc3)nnn2-c2nonc2N)CC1	inactive: 6.25%	–
CCOC(=O)Cn1nnnc1C(CC)N(Cc1cc2ccc(C)cc2[nH]c1=O)C1CCCC1 (configuration not stated)	inactive: 13.8%	–
Cc1ccc(NC(=O)C(=O)Nc2ccc(C)cn2)nc1	inactive: -9.25%	–
CC1=NN(C(=O)c2ccco2)C(O)(c2ccccc2)C1 (configuration not stated)	inactive: 10.7%	–
COc1ccccc1N(C)S(=O)(=O)c1ccc(C(=O)OCC(=O)Nc2cc(C)on2)cc1	inactive: 5.9%	–
Nc1ccccc1C(=O)Nc1nccs1	inactive: 11.3%	–
O=C(COC(=O)c1ccc(S(=O)(=O)NCc2ccco2)cc1)NCc1ccccc1	inactive: 4.65%	–
O=C(NCCc1nc2ccccc2[nH]1)c1ccc(Br)o1	inactive: -4.54%	–
Cc1ccc(-c2nnc(SCC(=O)NC(=O)Nc3ccc(C)cc3C)n2N)cc1	inactive: -2.01%	–
CCN(CC(=O)NCc1ccc(F)cc1)C(=O)/C=C/c1ccc(OC)c(S(=O)(=O)NC(C)C)c1	inactive: -18.8%	–
COC(=O)[C@H](CC(C)C)NC(=O)N1CCCCC1	inactive: 4.18%	–
CCC(C)(C)C(=O)Nc1cccc(Cl)c1C	inactive: 20.5%	–
Cc1ccccc1OCC(=O)Nc1nnc(-c2ccncc2)s1	inactive: 3.78%	–

Structure (SMILES)	growth rescue (activation)	Potency
CCOC1(OCC)N=C(N)C2(C#N)C(c3cccc(OC)c3OC)C12C#N (configuration not stated)	inactive: -15.7%	–
COC(CNc1nc(SC)nc2sc3c(c12)CCN(C)C3)OC	inactive: -5.36%	–
Cc1ccc(C(C(=O)NC(C)(C)C)N(CC2CCCO2)C(=O)c2csnn2)cc1 (configuration not stated)	inactive: -12.9%	–
c1ccc2c(c1)OCCOCCOCCO2	inactive: 20.9%	–
Cc1ccc(C(NC(=O)C2CCN(CCOc3ccc(Cl)cc3Cl)CC2)c2ccccn2)cc1 (configuration not stated)	inactive: -5.53%	–
C=CCSc1nc(C)c(CC(=O)OCC(C)C)c(=O)[nH]1	inactive: -18%	–
Fc1cccc(-n2ncc3c2ncn2nc(-c4ccccc4Cl)nc32)c1	inactive: 11.8%	–
O=C(Nc1ccon1)c1ccc(F)c(S(=O)(=O)N2CCCCC2)c1	inactive: 6.93%	–
CC(=O)c1cc(-c2ccccc2)n(CC(=O)Nc2cc(C)cc(C)c2)c1C	inactive: 1.38%	–
O=C(Oc1ccc(Br)cc1)C1CCN(C2=NS(=O)(=O)c3ccccc32)CC1	inactive: 22%	–
C=CCc1ccc(OCCCCNC2CCCC2)c(OC)c1	inactive: -10.2%	–
COc1ccccc1N1CCN(C(=O)c2cc(-c3ccccc3O)on2)CC1	inactive: -4.77%	–
CC(=O)OCc1cc2cc(C)ccc2[nH]c1=O	inactive: -2.21%	–
Cn1c(O)c(N=NC(=O)Cn2ccc(C(F)(F)F)n2)c2ccccc21	inactive: 6.28%	–
COc1cc2c(cc1OC)C(C(=O)Nc1ccc3c(c1)OCCO3)C(c1cccnc1)N(C)C2=O (configuration not stated)	inactive: -6.84%	–
Cc1ccc(S(=O)(=O)N(Cc2cc3ccccc3[nH]c2=O)CC2CCCO2)cc1 (configuration not stated)	inactive: -6.81%	–
O=C(COC(=O)COc1ccc(Cl)cc1)NCCCc1ccccc1	inactive: -8.7%	–
COc1ccc(CCNC(=O)c2ccc3c(c2)N(Cc2ccc(F)cc2)CCS3)cc1OC	inactive: -1.41%	–
Cc1ccccc1NS(=O)(=O)c1ccc(OCC(=O)NCc2ccccn2)cc1	inactive: 2.28%	–
CCCc1nnc(NC(=O)c2cc3ccccc3oc2=O)s1	inactive: -38.8%	–
COc1ccc(OCC(=O)NNC(=O)c2cccc(C)c2)cc1	inactive: 5.1%	–
CCCCN=C1NN=C(c2cccc([N+](=O)[O-])c2)CS1	inactive: 20.5%	–

Structure (SMILES)	growth rescue (activation)	Potency
O=C(O)CSc1cc(NS(=O)(=O)c2ccc(Cl)cc2)c2ccccc2c1O	inactive: 33.7%	–
O=C(Nc1cccnc1)c1cc(-c2ccc(Cl)c(Cl)c2)on1	inactive: 29.4%	–
Cc1ccccc1-n1c(SCc2cccc(F)c2)nc2[nH]ncc2c1=O	inactive: 18.5%	–
COc1cccc(NC(=O)c2cccc(C(=O)Nc3cccc(OC)c3)n2)c1	inactive: 16%	–
Cc1nn(-c2cccc(Cl)c2)c2nc(C(F)(F)F)[nH]c(=O)c12	inactive: -0.254%	–
O=C(Nc1cccc(OCC(=O)N2CCOCC2)c1)c1ccc(C(F)(F)F)cc1	inactive: 16%	–
Cc1ccccc1NC(=O)CSc1ccncc1	inactive: 5.71%	–
CC(C)n1c(CNC(=O)c2ccccc2F)nnc1SCC(=O)NC1CCCCC1	inactive: -0.318%	–
O=C(Nc1ccccc1C(=O)N1CCCCC1)c1ccco1	inactive: -2.49%	–
Cc1ccc2c(CC(=O)NCCc3ccc(S(N)(=O)=O)cc3)coc2c1	inactive: 10.9%	–
O=[N+]([O-])c1ccccc1/C=N/NC1=NCCCCC1	inactive: 6.15%	–
Cc1ccc(-n2c(O)c(C=Nc3cc(C)on3)c3ccccc3c2=O)c(C)c1	inactive: -7.59%	–
O=C1c2ccccc2NC(c2ccco2)N1/N=C/c1ccco1 (configuration not stated)	inactive: -8.22%	–
CC1(C(=O)N2CCCCC2)CCN1C(=O)c1ccccc1CCc1ccccc1 (configuration not stated)	inactive: 6.71%	–
O=C(C1CCN(CCCc2ccccc2)CC1)N(CCc1ccccc1)Cc1ccccc1	inactive: -3.22%	–
O=C(CSc1nnc2c(Cl)cc(C(F)(F)F)cn12)N(Cc1ccccc1)Cc1ccccc1	inactive: 18.3%	–
CC(C)Cn1c(=O)c(-[n+]2ccccc2)c([O-])c2ccccc21	inactive: -3.9%	–
O=C(c1cccs1)N(c1ccc(F)cc1)C1C=CS(=O)(=O)C1 (configuration not stated)	inactive: -0.772%	–
CCNC(=O)/C(C#N)=C/c1c(N2CCN(c3ccc(OC)cc3)CC2)nc2c(C)cccn2c1=O	inactive: 3.42%	–
